# Laboratory results taken from PubChem BioAssay AID1631 (National Center for Advancing Translational Sciences (NCATS), 2009).
# About 890 (0.34%) of roughly 260,000 compounds were called active. This list was built around the results that the source calls inconclusive (neither active nor inactive); the mix of calls is not that of the screen. Calls come from the whole dose curve; as a rule, active = well fitted activation curve with a large enough effect; inconclusive = small, poorly fitted or top-dose-only effect; inactive = no such curve, though single readings can be large or run the other way. No potency is given beside an inconclusive call; the fits are too rough.
# Target: Pyruvate kinase PKM (Homo sapiens) (UniProt P14618)
# UniProt P14618, sequence (P14618 whole entry, looked up, canonical isoform): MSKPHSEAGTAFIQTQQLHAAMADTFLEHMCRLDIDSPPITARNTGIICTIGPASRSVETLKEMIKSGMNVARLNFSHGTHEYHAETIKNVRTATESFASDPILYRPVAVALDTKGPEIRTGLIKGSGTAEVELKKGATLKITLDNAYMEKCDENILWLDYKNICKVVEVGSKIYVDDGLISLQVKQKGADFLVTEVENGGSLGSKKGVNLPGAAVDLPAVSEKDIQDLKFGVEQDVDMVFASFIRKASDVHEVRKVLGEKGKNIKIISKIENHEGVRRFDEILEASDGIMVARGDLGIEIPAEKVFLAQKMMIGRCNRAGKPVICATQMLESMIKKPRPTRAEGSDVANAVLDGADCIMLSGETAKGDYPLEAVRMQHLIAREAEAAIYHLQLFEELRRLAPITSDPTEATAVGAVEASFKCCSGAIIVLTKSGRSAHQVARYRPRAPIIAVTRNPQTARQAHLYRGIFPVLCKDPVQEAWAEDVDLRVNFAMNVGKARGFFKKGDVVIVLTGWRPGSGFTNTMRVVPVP
# Experiment: qHTS Assay for Activators of Human Muscle isoform 2 Pyruvate Kinase; note: nearly all actives have a fitted effect of over 55% in size
# Conditions: purified PKM2, Kinase-Glo ATP luminescence; Potency: activation; activation: at 57.5 µM (top of the series), 0% is enzyme alone, no compound
# Summary of the method: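 Kinase-Glo luminescence reports ATP generated from ADP (0.1 mM) and PEP (0.5 mM) by purified hPK-M2 after 1 h at room temperature, pH 7.2 imidazole buffer; intermediate enzyme activity allows detecting inhibitors and activators.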
# % is set by controls: 0 for no effect and ±100 for the full control effect; potency is the fitted concentration of half-maximal effect; tags give direction and shape of the fitted curve.
Structure (SMILES),Potency,activation
C=CCn1c(SCC(=O)N2CC(=O)Nc3ccccc32)nc2scc(-c3cccs3)c2c1=O,"inconclusive [rising, partial curve, poor fit]",
CCOCCCNC(=O)c1c[nH]c2ccc(OCC)cc2c1=O,,inactive: -1.75%
CC1Cc2cc(-c3csc(N)n3)ccc2O1 (stereo not given),,inactive: -0.439%
O=C(COc1ccc(S(=O)(=O)Nc2ccccc2)cc1)NCc1cccnc1,"inconclusive [rising, single point]",
COc1cc([N+](=O)[O-])ccc1NC(=O)CSc1nncn1-c1cccnc1,"inconclusive [rising, partial curve]",
Cc1cc(C)c(S(=O)(=O)N(C)CC(=O)NCc2ccncc2)c(C)c1,"inconclusive [rising, single point]",
CCC(C)N1C(=O)N(C)C2NC(=O)NC21 (stereo not given),"inconclusive [rising, partial curve, poor fit]",
O=C(O)c1cccc(Cn2c(Cl)c(/C=N/NC(=O)c3cc4ccccc4cc3O)sc2=O)c1,active: 31.6 µM,
COc1ccc(CNC(=O)CCCn2c(SCC#N)nc3cc4c(cc3c2=O)OCO4)cc1,,inactive: 1.04%
CC1CCN(Cc2c(C(=O)N/N=C/c3cc(Cl)ccc3O)nnn2-c2nonc2N)CC1,,inactive: -1.23%
COc1ccc(N(CC(=O)NCCSc2ccccn2)S(C)(=O)=O)cc1,,inactive: -3.56%
c1ccc(Cn2c(SCc3cn4cccnc4n3)nnc2-c2ccco2)cc1,"inconclusive [rising, partial curve]",
CCN(CC)S(=O)(=O)c1ccc2c(c1)nc(SCc1nc3ccsc3c(=O)[nH]1)n2CC,active: 12.6 µM,
CC(NC(=O)C1CCCCC1)c1ccc2c(c1)OCCO2 (stereo not given),,inactive: -5.3%
c1ccc(CNc2ncnc3scc(-c4cccs4)c23)nc1,"inconclusive [rising, partial curve, poor fit]",
CCc1nc2ccccc2n(CCOCCn2c(=O)c(CC)nc3ccccc32)c1=O,,inactive: -12.1%
Nc1cc(-c2ccc(Cl)cc2)nn1S(=O)(=O)c1cccc2nsnc12,"inconclusive [rising, partial curve]",
CN(C(=O)Nc1ccc(Cl)c(Cl)c1)c1ccccc1C(=O)O,,inactive: 3.3%
O=C(Nc1ccc(Cl)c(Cl)c1)c1ccc(Cl)c(Cl)c1,"inconclusive [rising, single point]",
COC(=O)C1=C(C(=O)OC)C(c2ccccc2O)c2sc(=O)[nH]c2S1 (stereo not given),"inconclusive [rising, single point]",
O=[N+]([O-])c1cc(S(=O)(=O)N2CCCCCC2)ccc1F,,inactive: 10.3%
Cc1ccc(CNC(=O)c2ccc(NS(=O)(=O)c3cccs3)cc2)cc1,"inconclusive [rising, partial curve]",
O=c1oc2ccccc2c2oc3cc(O)c(O)cc3c12,"inconclusive [rising, full curve, poor fit]",
O=C(COC(=O)c1ccccc1C(=O)c1ccccc1)Nc1ccc(SC(F)F)cc1,,inactive: -2.02%

Structure (SMILES),Potency,activation
Cc1cc(NC(=O)CSc2ccc(-c3ccc(F)cc3)nn2)no1,active: 7.08 µM,
CCn1c(NCCc2ccc(OC)c(OC)c2)nc2c1c(=O)n(C)c(=O)n2C,"inconclusive [rising, single point]",
Cc1ccc(CNC(=O)c2cc3c(=O)n(C)c4ccccc4c3n2C)o1,"inconclusive [rising, partial curve, poor fit]",
Cc1ccc(CCc2nnc(SCC(=O)Nc3cc(Cl)ccc3Cl)n2-c2ccccc2)o1,"inconclusive [rising, partial curve]",
COc1cc(-c2cc(C(=O)Nc3ccc(O)cc3)c3ccccc3n2)cc(OC)c1OC,,inactive: -2.06%
NC(=S)Nc1nc2ccccc2s1,,inactive: -19.3%
O=C(N/N=C/c1ccc([N+](=O)[O-])o1)c1ccccc1NS(=O)(=O)c1cccs1,"inconclusive [rising, single point]",
CC(C)OCCOc1ccc2oc(-c3ccco3)cc(=O)c2c1,,inactive: 0.866%
Cc1occc1-c1nnc(SCc2nnc(-c3ccc(Cl)cc3)o2)n1C,"inconclusive [rising, single point]",
Cc1ccc(-c2cc(C(=O)Nc3nccs3)c3ccccc3n2)o1,"inconclusive [rising, full curve]",
Fc1ccc(C(c2nnnn2Cc2cccs2)N2CCN(C3CCCCC3)CC2)cc1 (stereo not given),"inconclusive [rising, single point]",
CCSc1ccccc1C(=O)Nc1ccc([N+](=O)[O-])cc1OC,"inconclusive [rising, single point]",
O=C(c1ccco1)N1CCN(C(=O)C(Cc2ccccc2)NS(=O)(=O)c2cccs2)CC1 (stereo not given),"inconclusive [rising, single point]",
CCOc1ccc(-c2nnn(CC(=O)Nc3cc(OC)ccc3OC)n2)cc1OCC,,inactive: -6.85%
COc1ccccc1NS(=O)(=O)c1cc(C(=O)NCCC(C)C)ccc1F,"inconclusive [rising, single point]",
Cc1ccc(S(=O)(=O)CC(O)COc2ccc(F)cc2Cl)c(C)c1 (stereo not given),"inconclusive [rising, single point]",
Cc1cc(NC(=O)CSc2ccc3nnc(-c4ccccc4)n3n2)no1,"inconclusive [rising, single point]",
CC(C)NC(=O)N1CCOCCOCCN(C(=O)NC(C)C)CCOCCOCC1,"inconclusive [rising, single point]",
CCn1c(COc2ccccc2OC)nc2ccccc21,"inconclusive [rising, single point]",
CCCC[C@]12Cc3cc(C#N)ccc3C(O1)c1c(cc(C)n(-c3ccccc3)c1=O)O2,,"inactive: -2.92% [at 11.5 µM, 0% is enzyme alone, no compound]"
CCCNS(=O)(=O)c1cccn1-c1ncc(C(F)(F)F)cc1Cl,"inconclusive [rising, partial curve]",
Cn1c(O)c(/C=C2\C=NN=C2c2ccccc2)sc1=S,"inconclusive [rising, single point]",
CCc1ccc(-c2csc(NC(=O)Oc3ccccc3)n2)cc1,"inconclusive [rising, single point]",
O=C(c1ccc(S(=O)(=O)c2cccc(Cl)c2)c([N+](=O)[O-])c1)N1CCN(Cc2ccccc2)CC1,active: 3.16 µM,

Structure (SMILES),Potency,activation
O=C(NCc1cccs1)c1cnc2sccn2c1=O,"inconclusive [rising, single point]",
Cc1ccc(CNC(=O)[C@@H]2C[C@H]2[C@@H](NP(=O)(c2ccccc2)c2ccccc2)c2ccccc2)o1,"inconclusive [rising, partial curve]",
CCc1cc2cc3c(cc2nc1SCC(=O)N1CCN(C(=O)c2ccco2)CC1)OCO3,"inconclusive [rising, partial curve]",
CC1S/C(=N/N=C/c2ccco2)NC1=O (stereo not given),,inactive: -1.4%
O=S(=O)(c1cccs1)N1CCN(C/C=C/c2ccccc2)CC1,"inconclusive [rising, partial curve]",
CCc1cccc(C)c1N=Cc1c(O)c2ccccc2oc1=O,"inconclusive [rising, single point]",
CCN(CC)c1ccc(NC(=O)Nc2ccc(C(C)=O)cc2)cc1,,inactive: 1.97%
Oc1ccccc1N1CCN(c2ncnc3sc(-c4ccccc4)cc23)CC1,"inconclusive [rising, full curve, poor fit]",
COc1ccccc1N1CCN(C(=O)COc2ccc(S(=O)(=O)NC(C)C)cc2)CC1,"inconclusive [rising, single point]",
Cn1c(=O)n(C)c2cc(NC(=O)c3ccccc3[N+](=O)[O-])c(Br)cc21,active: 7.94 µM,
COc1ccc(S(=O)(=O)Nc2nnc(C)s2)cc1,"inconclusive [rising, partial curve, poor fit]",
Cc1oc2c(O)c(O)ccc2c(=O)c1-c1ccccc1,"inconclusive [rising, single point]",
O=C1NC(c2ccc(Cl)c([N+](=O)[O-])c2)Nc2ccccc21 (stereo not given),"inconclusive [rising, single point]",
CCc1ccc(NC(=O)Cn2ccn(-c3cccc(Cl)c3)c(=O)c2=O)cc1,"inconclusive [rising, partial curve]",
CC1CCCN(CCOc2ccc3ccccc3c2Br)C1 (stereo not given),"inconclusive [rising, single point]",
COc1ccc(C(C#N)=C2C=CC(=NO)C=C2)cc1,"inconclusive [rising, partial curve]",
COc1ccc(C(=O)/C=C/C(=O)N(CC(=O)NC2CCCCC2)Cc2ccccc2OC)c(O)c1,"inconclusive [rising, full curve]",
COCCNC(=O)C(c1ccc(OC)cc1)N(CCOC)C(=O)CCC(=O)Nc1nccs1 (stereo not given),"inconclusive [rising, single point]",
S=C(Nc1ccc(Cl)cc1)c1nc2ccccc2[nH]1,,inactive: -15.2%
O=C(Nc1ccccc1)C12CC3CC(C1)CC(n1cnc([N+](=O)[O-])n1)(C3)C2,"inconclusive [rising, single point]",
CCOC(=O)c1ccc(-n2c(CCC(=O)O)ccc2-c2cccs2)cc1,"inconclusive [rising, single point]",
CCN(CC)c1ccc(NC(=O)Nc2cccc(C(C)=O)c2)cc1,"inconclusive [rising, full curve]",
